# From PubChem BioAssay AID485297 (National Center for Advancing Translational Sciences (NCATS), 2010)
# Hit rate of the full screen: of about 320,000 compounds, about 9,100 (2.8%) were called active. The shares of active, inactive and inconclusive entries below differ from those in the screen. The call rests on the fitted dose curve; in most records, active means well fitted activation curve with a large enough effect; inconclusive means small, poorly fitted or top-dose-only effect; inactive means no such curve, though single readings can be large or run the other way. No potency is given beside an inconclusive call; the fits are too rough.
# Experiment: qHTS Assay for Rab9 Promoter Activators; further: nearly all actives have a fitted effect of over 60% in size; on activation, negative = inhibition: % of control where 0% means no effect
# Settings: Huh7 Rab9 promoter-luciferase reporter, luminescence, 24 h; series mostly up to 9.22 µM; activation, negative = inhibition: at the top concentration
# Text: NIH Chemical Genomics Center [NCGC] NIH Molecular Libraries Probe Production centers Network [MLPCN] MLPCN Grant: MH089537-01 Assay Submitter (PI): Yiannis A. Ioannou NCGC Assay Overview: Niemann Pick Type C (NPC) is a rare neurodegenerative lipidosis that is characterized by lipid storage in the endosomal/lysosomal system. Treatment modalities for this devastating disease are currently non-existent due to the severe obstacles associated with accessing the central nervous system with proteins or genes (Ioannou, 2000). We have developed a new paradigm, termed "Orphan Receptor Bypass Therapy" (ORByT), to address these disorders. This paradigm posits the existence of endogenous "suppressor" proteins whose expression can dramatically improve LSD pathogenesis. The goal is the identification/discovery of small chemical compounds that can modulate the expression of these proteins and provide a new treatment modality for these devastating disorders. One such protein whose overexpression reverses aspects of the NPC phenotype is Rab9. We have developed and optimized a cell based luciferase reporter assay in 1536 well format for the identification of up-regulators of the Rab9 promoter.
# The Rab9 promoter is cloned in front of the luciferase reporter gene, therefore […] promoter activation results in luciferase expression. Frozen stock of the Rab9 promoter transfected Huh7 cells were obtained from the laboratory of Dr. Yiannis Ioannou (The Mount Sinai School of Medicine, New York, NY). Cells were propagated and maintained at NCGC in medium containing RPMI-1640 supplemented with 10% FBS, 2mM L-glutamine, and 50ug/ml penicillin/streptomycin. Cells were harvested in and plated for assays in OP-MEM I reduced-serum medium supplemented with 10% FBS. The Amplite luciferase reporter gene assay kit was purchased from ABD Bioquest and prepared/stored according to manufacturers recommendations. qHTS Assay Setup: 1.Dispensed 5ul of Huh7 cells stably expressing Rab9-luciferase at a density of 1500 cells per well 1536-well plates. 2.Incubate cells at 37C, 5% CO2, and 95% humidity for 2 hours. 3.Transferred 23nl per well of compound in DMSO solution. 4.Incubated at 37C, 5% CO2, and 95% humidity for 24 hours. 5.Dispensed 3ul per well of Amplite reagent(ABD Bioquest) per well. 6.Incubate at ambient for 10 minutes. 7.Read using the luminescence protocol on the ViewLux plate reader (Perkin Elmer).
# Potency means the concentration at half of the fitted maximal effect; tags describe the fitted curve by direction and shape.
SMILES,Potency,"activation, negative = inhibition"
Cc1nc(Cl)sc1C(=O)Nc1ccc2ccccc2c1,"inconclusive [activator, single point]",–
CN1CCN(CCC(C#N)(c2ccccc2)c2ccccc2)CC1,"inconclusive [activator, single point]",–
CC(C)OP(=O)(Oc1ccc(C(O)C(Cl)(Cl)Cl)cc1)OC(C)C (configuration not stated),–,inactive: -17.1%
O=c1[nH]c(O)c(N=Nc2ccc(SC(F)F)cc2)c(=O)[nH]1,"inconclusive [activator, single point]",–
CCN(CCO)c1ccc(N=Cc2c(O)n(C)c(=S)[nH]c2=O)cc1,"inconclusive [activator, partial curve]",–
Cc1c(OCC(F)(F)F)ccnc1CS(=O)c1nc2ccccc2[nH]1 (configuration not stated),active: 3.98 µM,–
CCC(=NCCc1c[nH]c2ccccc12)c1c(O)n(C)c(=O)n(C)c1=O,–,inactive: -16.5%
c1csc(-c2nnc(COc3ccc4c(c3)OCO4)o2)c1,"inconclusive [activator, single point]",–
Cc1cc(C(=O)OCC(=O)Nc2ccccc2F)c(C)n1C1CC1,"inconclusive [activator, partial curve]",–
Fc1cccc(F)c1-c1nc(-c2ccc(Cl)cc2)no1,active: 2.82 µM,–
ClCCNc1nc2ccc(Cl)cc2[nH]1,"inconclusive [activator, partial curve]",–
c1cncc(CNC2=NCCCCC2)c1,–,inactive: 2.09%
CN1CCc2nc(SCC(=O)OC(C)(C)C)c(C#N)cc2C1,"inconclusive [activator, single point]",–
Cc1cc(NC(=O)c2noc3c2CCCCC3)no1,"inconclusive [activator, partial curve]",–
COC(=O)c1ccc(-c2nc(-c3ccc(Br)o3)no2)cc1,active: 3.98 µM,–
CC1CCN(CC(=O)c2ccccc2Cl)CC1,"inconclusive [activator, partial curve]",–
COc1ccc(-c2coc3cc(OC(=O)N4CCOCC4)ccc3c2=O)cc1,"inconclusive [activator, partial curve]",–
Cc1cc(C(=O)N=Nc2c(O)n(C)c3ccccc23)c(C)o1,active: 3.55 µM,–
O=c1c2cc(N3CCOCC3)ccc2[nH]c(=S)n1Cc1ccc(Cl)cc1,"inconclusive [activator, single point]",–
O=C(c1cc2ccccn2n1)N1CCN(Cc2ccccc2)CC1,"inconclusive [activator, partial curve]",–
O=C(c1ccc(F)cc1)C(Cc1ccccc1)N1CCCCC1 (configuration not stated),"inconclusive [activator, partial curve, poor fit]",–
CC(=O)Nc1ccccc1C(=O)OCc1cccc(F)c1,"inconclusive [activator, partial curve]",–
COC(=O)C1=C(c2ccc3ccccc3c2)C[C@@H]2CC[C@H]1N2C,–,inactive: -15.4%
CC1CCN(CC(=O)c2ccc3c(c2)OCCO3)CC1,"inconclusive [activator, partial curve]",–

SMILES,Potency,"activation, negative = inhibition"
O=C1NC(=O)N(c2ccccc2F)C(=O)/C1=C/c1ccc(Sc2nc3ccccc3[nH]2)o1,–,inactive: -5.08%
CN1CCN(C(=O)COc2ccc(-c3nc4ccccc4s3)cc2)CC1,active: 0.316 µM,–
NC(Cc1nc2ccccc2[nH]1)c1ccc(Cl)cc1 (configuration not stated),"inconclusive [activator, single point]",–
Cc1ccc(-c2nc3ccc(Cl)cc3n2OC(=O)N(C)C)cc1,active: 3.16 µM,–
CN(C)C(=O)Oc1ccc2c(c1)O/C(=C\c1cccc(Cl)c1)C2=O,"inconclusive [activator, partial curve]",–
Nc1c2c(nc3sc4c(c13)CCCC4)CCCC2,"inconclusive [activator, single point]",–
N#Cc1cc2c(nc1SCC(=O)Nc1cc(Cl)ccc1Cl)C1CCN2CC1,"inconclusive [activator, single point]",–
O=C1NC(=O)C(=Cc2cccc(OCCOc3ccccc3)c2)C(=O)N1,active: 0.316 µM,–
Cc1ccc(C(=O)Nc2nc3ccccc3n2CCN2CCCC2)cc1,"inconclusive [activator, single point]",–
O=C(Oc1ccc2cc(Br)ccc2c1)N1CCCCCC1,active: 3.98 µM,–
CC(=O)Nc1ccccc1C(=O)OCC(=O)c1ccccc1Cl,active: 3.55 µM,–
CC(=O)Nc1nnc(SCC(=O)NCCOc2ccccc2)s1,"inconclusive [activator, single point]",–
Cc1ccccc1NC(=O)COC(=O)c1cc(C)n(C2CC2)c1C,"inconclusive [activator, single point]",–
O=c1c2ccccc2c(C=Nc2ccc(O)cc2)c(O)n1Cc1ccccc1,"inconclusive [activator, single point]",–
Oc1cccc2nc3ccccc3nc12,"inconclusive [activator, partial curve]",–
CC(=O)c1ccc(OC(=O)N(C)c2ccccc2)cc1,"inconclusive [activator, partial curve]",–
COc1ccc(-n2nc(C(=O)NCC(=O)N3CCC4(CC3)OCCO4)c3ccccc3c2=O)cc1Cl,"inconclusive [activator, partial curve]",–
CN1C(=O)C(=Cc2c(OCc3cnc(Cl)s3)ccc3ccccc23)C(=O)N(C)C1=O,"inconclusive [activator, partial curve]",–
COc1ccc2nc(NC3=NCCN3)sc2c1,active: 2.51 µM,–
O=C(Nc1ccccn1)NC12CC3CC(CC(C3)C1)C2,"inconclusive [activator, single point]",–
Nc1c2c(nc3sc4c(c13)CCCCC4)CCCC2,"inconclusive [activator, partial curve]",–
COc1ccc(C(c2c(O)c3ccccc3oc2=O)c2c(C)n(C)n(-c3ccccc3)c2=O)cc1 (configuration not stated),–,inactive: -0.186%
COc1ccnc(N=CNOCc2ccc(C)cc2)c1C#N,"inconclusive [activator, partial curve]",–
